Results: the supplement of paper PMC3334620
In all, about 33,000 sequences were measured (“E-score (-0.5 to 0.5)”: median about -0.054, highest 2% from about 0.35 on). This is one part of the list.

target: T1, Stb5 (UniProt P38699); test: PBM E-score (8-mer binding enrichment) (E-score (-0.5 to 0.5)); higher = stronger / more preferred TF binding; most listed sequences are background and not binding sites; conditions: protein concentration: 200 nM; construct: GST-full length
T1 sequence: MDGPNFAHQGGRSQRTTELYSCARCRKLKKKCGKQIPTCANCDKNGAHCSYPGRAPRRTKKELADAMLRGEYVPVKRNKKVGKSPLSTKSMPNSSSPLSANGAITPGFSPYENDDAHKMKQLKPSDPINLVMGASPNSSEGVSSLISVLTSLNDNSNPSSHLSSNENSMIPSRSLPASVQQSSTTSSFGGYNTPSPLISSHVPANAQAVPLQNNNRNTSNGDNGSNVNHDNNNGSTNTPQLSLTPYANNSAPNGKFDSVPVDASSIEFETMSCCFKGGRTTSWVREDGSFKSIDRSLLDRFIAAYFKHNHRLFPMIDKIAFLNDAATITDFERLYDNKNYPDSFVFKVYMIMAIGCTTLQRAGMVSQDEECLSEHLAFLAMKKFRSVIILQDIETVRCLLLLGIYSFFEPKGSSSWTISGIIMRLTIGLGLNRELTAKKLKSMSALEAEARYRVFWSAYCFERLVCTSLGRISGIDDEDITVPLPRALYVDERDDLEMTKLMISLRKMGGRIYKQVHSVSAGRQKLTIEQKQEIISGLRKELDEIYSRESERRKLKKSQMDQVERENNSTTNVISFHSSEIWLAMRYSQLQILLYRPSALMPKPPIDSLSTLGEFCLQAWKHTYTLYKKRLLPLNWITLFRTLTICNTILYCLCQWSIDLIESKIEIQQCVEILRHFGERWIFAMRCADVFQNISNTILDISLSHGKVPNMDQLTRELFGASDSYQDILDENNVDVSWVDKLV
Method in brief: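 E-scores (a modified Wilcoxon-Mann-Whitney statistic) were assigned by the Universal PBM Analysis Suite to every ungapped eight-base word pooled with its reverse complement. The input came from universal all-10-mer Agilent arrays made double-stranded by primer extension and probed with GST-tagged yeast transcription factors at about 100-200 nM. Fluorescent anti-GST detected bound protein, and masliner normalised the scans.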

Sequence | PBM E-score
AAACCGCG | 0.258
CGAGCAAA | -0.2
CCGAGATA | 0.186
ACTACTTA | -0.155
TCCCGGGA | 0.181
CTCTGGAA | -0.161
CCTCGGCA | 0.17
ACAACAAA | -0.00837
CATTACGG | -0.0395
GGTCTAGA | 0.00139
GCGCATAC | 0.0543
CACGGTAA | 0.232
CGCTAGCC | -0.175
CTCCTCAA | -0.0752
CCGATATA | 0.267
GTTCCCAA | 0.0114
CTCCCCAA | -0.139
AATTATTA | 0.017
ATCTAAAG | -0.0508
CTTAGGCC | 0.0358
AGTTGCCG | 0.108
CCGTTCAG | 0.18
CCTTTTCG | -0.0988
ACGTCTAA | -0.021
CGCAACAC | 0.0665

Sequence | PBM E-score
GCGCAACC | 0.00927
CCGTCCAG | 0.19
CCGCGTAG | 0.109
TAACGCAA | -0.0697
GATGATGC | -0.0873
GTGCCATA | -0.112
GCTAAGCC | 0.0516
GGATACTA | 0.115
GAACGTTA | -0.0144
ACACAGGC | -0.0728
AAGAGTGG | -0.146
GGAACCAA | 0.0988
GATCCCCC | -0.00321
CCCCATCG | 0.113
ATACGGCC | 0.299
CGGACATA | 0.474
CGACTCCA | -0.0871
GGTCGATA | 0.00753
GAGATGAC | -0.132
GCCAAATA | 0.0439
GCCGATCC | 0.207
GTGGTGCA | 0.0323
AACCAGAC | -0.327
CCATCTGC | 0.0588
AGTGCAAC | -0.0624

Sequence | PBM E-score
GTGTGGTA | -0.116
GTGCTCGA | -0.133
AAACGCAA | -0.0113
GAGCATCC | -0.103
CGCAATAC | -0.0062
CGTTGGTA | 0.118
ACCGCCCG | 0.345
CCCAGTTA | -0.0109
CACATGTA | -0.115
AGTCTCAT | -0.154
CTGTATTA | -0.0491
AAGTCGGG | 0.259
CCCAGTGA | -0.136
GACTTTGA | -0.0643
ATAATATC | 0.154
CTATTGGA | -0.13
CTAGGGAA | -0.00814
CTCGACAC | -0.052
ACATGCAC | -0.231
GACAGCCC | 0.0224
CCGTAGGC | 0.175
GTCACCGA | 0.285
GGATAGTA | 0.112
CTGATTAC | -0.0945
TATTAGCA | -0.0828

Sequence | PBM E-score
AAGTAGAT | -0.0908
ACGATGCG | -0.0816
CGCTCACG | 0.121
ACTGCCTG | -0.299
ACGTGAAT | -0.146
AACGTACG | -0.103
GCGGCTAC | 0.192
CGTCTACC | -0.0293
AGGTGGAC | -0.191
GTTCCGCA | 0.19
GAACGGTA | 0.212
ATCTTGAC | -0.254
AATTGGCA | -0.187
AGGGGTTC | -0.15
CCAGTACA | -0.234
CGTGAATC | -0.0474
GGTCCAGA | -0.0181
GATGTCGC | -0.00661
CTCATACC | 0.0707
GATTGGGA | -0.238
CTGGTGGC | -0.248
CGCTAGTA | 0.26
GCTTCACA | -0.172
AATCTCAG | -0.281
ACTTCTTG | -0.0308

Sequence | PBM E-score
GCGAGCAC | -0.0442
GCTCAAAC | 0.189
AGTCGCAT | -0.16
ATTATGAA | 0.0321
CGTTTTCA | 0.127
GTGTTCGA | -0.101
AAACGTCC | -0.0079
CCGCCCCG | 0.409
ATAAAATA | 0.0226
CCTATAAA | 0.022
CGGGAAAA | 0.282
GCCGGCGA | 0.259
GACAACAA | -0.16
AGCGGAAG | 0.137
AGAGATAT | -0.194
AGTGAAGA | -0.155
AATTTTCC | 0.167
GAGTGCAC | -0.125
GGGAGCCC | -0.0225
AACATTTA | -0.0512
AGCCATGA | -0.0944
CAGATTAG | -0.16
TAACTTCA | -0.0957
AAAGAACA | -0.172
CTGTTGTA | -0.0921

Sequence | PBM E-score
CCGCGCAC | 0.24
AATCAAAA | -0.0569
GAGGCAGA | -0.0954
CAATTAAC | 0.0512
CCCGCCGG | 0.39
ACGTAGTC | -0.0657
ACGCAGCC | -0.123
AAATTAGT | -0.012
AAAAGCCG | 0.38
CCAGTGCC | -0.123
ATTTTGCA | -0.0801
AGCCGTAT | -0.132
GACCGGCC | 0.29
TCAATGGA | -0.0639
GGTCGTGA | -0.133
ATACTTTG | -0.249
GAGAACCC | -0.153
AGATGCAG | -0.308
AATTATCT | -0.0807
CTCTTATA | 0.142
CAGTGCAC | -0.0219
GACCCCAC | -0.112
ACCTGACC | -0.194
AAAAACAC | -0.0126
AAATTGTG | -0.306

Sequence | PBM E-score
AAGGCTGA | -0.214
AAGAACAC | -0.125
ACCGAACT | 0.176
CTGGTTTC | -0.175
AGCACAAC | 0.0407
ATTCGATG | -0.0293
ATCGCTCA | -0.294
ATTTGAGC | -0.024
ACAGCCCA | -0.263
CATAGGTA | -0.176
ATGACATA | -0.234
CCGACCGG | 0.382
CGATGCAA | 0.137
AGTGTGCA | -0.309
CAAGACGA | -0.175
CTGGCGGC | 0.341
ACGTTGAT | -0.261
GTAGCGTA | -0.00685
AGGCCACA | -0.234
AGGTAATA | 0.21
GTGGCCCA | -0.121
ATCCCTCG | -0.0782
AGTTCACC | 0.0469
CGTGATAA | 0.0332
GAGGCCAC | -0.226

Sequence | PBM E-score
CCTCACAG | -0.191
GTTTGGTA | 0.0996
ATTCTTCG | -0.0834
CTGCATAA | -0.087
AAAGCCTT | -0.226
CAATGATA | -0.0649
CACGCTGA | -0.0562
CAGCGCAG | -0.0462
CAAGACCC | 0.108
AAGACTCG | -0.125
CCGCGGCG | 0.322
GACGCCTA | 0.0029
CCAGTGAA | -0.105
CAAAAGCC | 0.16
CGATTGTC | 0.0331
AATACAGC | 0.00825
CTGATCGA | -0.199
TCCCCAAA | -0.29
ACTTCATC | -0.126
AGGTCGTG | -0.223
GAAGGTAC | -0.158
ATGCGCCG | 0.195
CAGGAGCC | -0.231
AGTGCGCA | 0.0819
ACTACGAT | -0.217

Sequence | PBM E-score
AGGTTGGC | -0.163
GTGGCACA | -0.325
AGTGTACC | -0.219
CTGGTTCC | -0.176
GCCGGCGC | 0.337
CTTTTTTC | -0.172
CCGATGAA | 0.251
TAGCCCGA | 0.171
AGAGTCCT | -0.216
GATCCTGC | -0.0268
CACTTATG | 0.177
GACCCAGA | 0.0755
CCCGAAGC | 0.133
TACTGCCA | -0.141
TCTTCTCA | -0.12
CGCGGGAG | 0.105
ATTAAAAC | 0.15
GCGCCAAC | -0.0401
ACCAGAGT | -0.0938
